Laboratory results published in the supplement of paper PMC11417369.
The list shows a part of the results.

System: PF3D7_0420300 AP2 domain 1 (GST-tagged)
Experiment: gcPBM binding intensity (ln(normalized median fluorescence intensity)); higher = stronger DNA binding
Summary of the method: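 GST-tagged P. falciparum DNA-binding domains, expressed in E. coli (about 25 μg on average), were applied for 1 h to an Agilent 4 × 180k array of primer-extended double-stranded 36-bp intergenic genomic probes plus negative controls. The binding buffer was 1× PBS with 1% milk, 0.2 mg/ml BSA, 0.5% salmon testes DNA and 0.03% Triton X-100. Bound protein was detected with Alexa488 anti-GST antibody and scanned at 488 nm. Binding intensity is the highest Masliner-normalised natural-log median intensity across replicate spots of either probe orientation.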

Sequence	gcPBM binding intensity (ln)
ATTTAACAACTTCAAACACACAATATATATATATAT [CACACA_site2093]	9.35
CATAAATTAATAGTCACACACGTATTTTTTATATAT [CACACA_site2526]	9.47
TGAAAAAAAAAAAAAAAAAAAAGAAAAAAAAAAAAA [CACACA_negctrl_site709]	8.27
TTACACAAACAAATTATGGACACATAAGTAAAAGGA [CACACA_negctrl_site1622]	9.63
TTATCCATAAAAAAGTGTACGCACTAAAATTGAAAA [XGTACX_site5460]	9.05
GAAAAAAGAAAAAAAAGTACATATATTTAATAAGAC [XGTACX_site6912]	9.57
TATAATTCATATGAAACACACATTTATTTTAATTAC [CACACA_site3686]	9.35
GGACTTAAATAAAATGGTACAGAATTTATATATATT [XGTACX_site8214]	9.23
TAATGGAATACATATAGTACATAATATTACATACAT [XGTACX_site5737]	9.43
TTTTAAAAATTAAAAAAATTAAATGTAAAAAAATGA [CACACA_negctrl_site861]	8.91
ATATATGTATATGTGTGTACATATATGTTTATTATT [XGTACX_site6043]	9.55
ATTAAAAATTAATATAAACACACAAAAATTAATAAA [CACACA_site8019]	9.61
TCCTCGCGTAATACTTTTCAAATAAAAAAAATAAAA [TGCATGCA_negctrl_site403]	8.64
TTTTTTTTTTTTTATTGTACTAGTAGATATATATAC [XGTACX_site3463]	9.17
CCAATATATACATATATATAGTTATATATATTTCCT [TGCATGCA_negctrl_site38]	9.19
GTGTCAAATTTTATAACACACAAAAGATTATATAAG [CACACA_site4086]	9.3
AAACATACTTGATGCAGTACACATTATAAGCACATA [XGTACX_site3359]	9.26
TTATGTGCTTTAAAAGTGCATTTTTTTTTTTTTTTT	8.86
TATATGTTTTATAAATGTACATATACTTAAATATTT [XGTACX_site4753]	9.13
TTTATCAAAAAAAAAAAAAAAAAAAAAAAAAATTGT [CACACA_negctrl_site176]	8.91
TTATTTGTATCCATTTCACACATTTTATATAGTATC [CACACA_site5989]	9.45
TTTTTTGTTATGCGGGTGCATATAATAATGTGATGA	9.08
AATACATAATAACGTTGTACAAAAATTATAATACAT [XGTACX_site6508]	9.62

Sequence	gcPBM binding intensity (ln)
ACTATTAAGAATAAAGAAATATGTAATTGTATTTAA [CACACA_negctrl_site516]	9.06
TATAAATAAATGTGTACACACATTAAAATCAAACGT [CACACA_site2340]	9.75
TTTTTTTTTTTTTTTACACACAAATGTATACTATAT [CACACA_site1787]	9.41
TATTAAATATTCATATGTACATATAGTTTATAAATT [XGTACX_site7455]	9.09
ATATATGTATGTTAGACACACATATTATAATATGTT [CACACA_site116]	9.41
AAAACGGATTCTTTATAAATAAATAAATAAATATAA [XGTACX_negctrl_site157]	8.9
AATACATACACAAATACACACACAAATACATACACA [CACACA_site8134]	10.1
GTATTATCTTTTAATAGTACATATTTTTTTGAAACA [XGTACX_site4050]	9
AATATATTTTTATATTGTACAAAAGAAAAAAAATAT [XGTACX_site1689]	9.23
CATATAATATTTGAAACTATATATAAATATAAGGTA [TGCATGCA_negctrl_site19]	9.19
AGTTTTCCATGTTAATGTACTTAACAATACCATAAT [XGTACX_site209]	9.25
ATTTATTCATAGACAACAAGAAAAAAAAAAAAAATT [CACACA_negctrl_site1168]	9.3
TATATCCATATTGTATGTACACATATAATACCAATG [XGTACX_site7230]	9.27
ATATATTTAATATTCACACATAATTATTTTTACTCT [CACACA_site5438]	9.45
ATATAATGATAATATTGTACATGTTATATTTCAATA [XGTACX_site8645]	9.2
TATAGATAAGAATATGCACACATTTTATTTTTTTTT [CACACA_site1982]	9.3
TTGTAATATCTTGTCACACATATATATATATATATA [CACACA_site4937]	9.31
TTTTTAATTTATTAAGAAGTAAAGAATAACTCTTTT [TGCATGCA_negctrl_site101]	8.57
AAACATTAAAATAACTCACACATTTTTCTAGTCTTC [CACACA_site4612]	9.41
TATTATTCTGTATTTGCATGTGATCATATATATGTA [TGCATGCA_site1053]	9.47
CATATGTATATGACTACACACAAGGGTGTACAGATA [CACACA_site4776]	9.51
GTATATCATTTTGGGGTGCTTAAAAATAATGAATAC	9.27
TATATAACATAATATACACACATTATGTGCGTAATT [CACACA_site4073]	9.48

Sequence	gcPBM binding intensity (ln)
TTTTTTTTTTTTTATTGTACAAAGGTATAAAATAAT [XGTACX_site2396]	8.94
CATACATACAGACACACACACATATATATATATATA [CACACA_site2920]	9.91
ATAAAAATACAGTTAACACACATGTGGATATATATG [CACACA_site3771]	9.78
AACATAAAAATGAACATACACACATATATATATATA [CACACA_site2497]	9.83
AAACAAAAAAGTAAGAAAAGGGATGATTGGATCCAA [CACACA_negctrl_site1230]	9.33
AGATATTATAATTAATGTACAAAAAGAAAAAATAGA [XGTACX_site8964]	9.35
CATTTTTACCGGTACTGTACATAAAAAAAAAAAAAG [XGTACX_site1548]	9.17
TTATATGTTTTACAACGTACACAAAAAAAACTTATA [XGTACX_site4413]	9.02
TATATAATATTTTTCACACACCATTTCCTTAAACAC [CACACA_site4862]	9.58
GCAGGCTAAAAAATTACACACGAAAAAAATGAATTT [CACACA_site3417]	9.15
CATATATGGTTATATACATGCACCATTATATTATTA [TGCATGCA_site520]	9.23
TAAAAAAAAAGAAGGGGTACATGGATAATATATAAA [XGTACX_site8386]	9.53
TGTATAACCTGTGTTACACACATTATGATTTATATA [CACACA_site525]	9.54
TATAATAATTCTTTGAGTACTTAAACATGTGAAATT [XGTACX_site955]	9.07
GCGAGATGCTAAAATGCATGTTGGGCATTAGTTAAA [TGCATGCA_site586]	8.9
ATATTAATATATGTGGCACACATGTGGAGTCCTATT [CACACA_site213]	9.57
TATCATTTCTAAAAAGGTACACATACATCATATATT [XGTACX_site3386]	9.2
GTGTAGTAAAATCGATGTACGTACAAATCAATTATT [XGTACX_site7662]	9.28
AAAAAAATGAAGAAATGTACAAATTTCATTAATTTT [XGTACX_site354]	9.04
TATATATGTAAATGCACACATATGTGGATATACTTA [CACACA_site1699]	9.43
ACATATAAATATTGTGTGCACACACATAATATATAT	9.94
GTAATTTTAAAGAAAAGTACACATTTATTAATTATT [XGTACX_site4468]	9.09
AAAAATTATAACTAAAAAAATCACACAAAATATTTT [TGCATGCA_negctrl_site28]	9.34

Sequence	gcPBM binding intensity (ln)
TTGCATTTATTATACACACACAAAAAAATATATATA [CACACA_site238]	9.8
GTGTTAAATGTTTACACACAAACTTGCAATAATTAT [CACACA_site3825]	9.52
TATGTATTTAAGTTACCTGAACGTTCAGGTAAAATT [CACACA_negctrl_site1393]	9.25
TATAAAAAAAAAAAAAGTACTAACTTAAAACAATTT [XGTACX_site7969]	9.14
TTGATAATTATATAATGTACTCATTATAATATGATG [XGTACX_site7813]	8.97
TGATAAAGTAAATATACATGCGATTAGTTATATATA [TGCATGCA_site720]	9.31
TTTATTCTCAAACACACACACATATATATATATATA [CACACA_site2895]	9.69
TAATTAATAATAATATGTACATATTAATATATTATT [XGTACX_site6900]	9.13
TTTTATATATATATCACACACACACCCATGTTTTAA [CACACA_site79]	10
TATTTATTCTCCAACACACACACATATATTTATATA [CACACA_site7376]	9.98
AGTTTGTCAATCAACACACACCTATTTATTATAGAT [CACACA_site7777]	9.58
TTTTTTTTACATTCTGCACACAATTTATTTTTTTTT [CACACA_site36]	9.67
AAAAATGAGTGACACACACACATATAAATATAAATA [CACACA_site7115]	9.8
AAATCAAACTTTGGTGTGCACAAATATATACATATA [GTGCAC_site9986]	9.51
TTAACAAAACTTTTAACACACAAAAAAAAAAAAAAA [CACACA_site6947]	9.08
CTATAATAATAAAGTGAACACACACCGATAATATAT [CACACA_site9377]	9.78
GTAAGTTGTGCATTCACACACATATAAATATAAATA [CACACA_site7536]	9.58
CATTATGTTGTAAATGCACACATACAAATACATATA [CACACA_site8380]	9.42
TTATGATATATTTGTTGTACGCTTTTTTTATGAACT [XGTACX_site573]	9.51
AATTAAATTACTTATACACACATAAAATGCCTGTAT [CACACA_site6597]	9.5
